# Source: the RNAGym collection of RNA variant scans (doi:10.7554/elife.90254)
# Read counts are not given, so values of variants with three or more changes are uncertain.
# B1: LINE1-full (parent)
# chain: UACGUAGGUGGUUUUCCCCUGAUAGUGCUAAGGGGGCCUGGAAGUUUGGACUGGGCAGAGCUCAACACAGCGUGGCAAAGUGGCUGUGGCUAGACUGCCUCUCUGGAUUCCUCGUCACUCAGCAGGGCAUCUCUGAGAGAAAUGCC
# Variants of: B1
# Assay: self-cleavage, relative activity (ratio to wild type); higher = more cleavage; in vitro, sequencing; the parent is a self-cleaving ribozyme
row,Variant,self-cleavage
1,U14C U20A U85C A141G,0.34
2,A31U C123A U143C,1.01
3,A22U A64U A67G A77G A78C,0
4,G32C A64G G105A,0.37
5,G4A A43G U108C,2.16
6,U108C A124U U143A,1.18
7,A124U U130A U132A,1.99
8,U87C U119C G144A,0.4
9,U15C A42G U45A A57U U96A,0.6
10,A43G U46A U85C,0.12
11,U15C G35U A42U U46A A142U,0.8
12,A57U A69G A141G,0.1
13,A2G G44A U104A A117C,0.86
14,U1C U23C A142G,0.73
15,U62C A107C A117C,0
16,U91A U102A A124G U134A,0.63
17,U29C A79G U134A,0.38
18,U12C A67G A79U A136U,1.25
19,C16A C51U A57U U85C,0.04
20,U62C A67G A78G,0
21,U26A A57G G74A A124U,0.38
22,U39C U100A A129G,0.48
23,U45A G106A A121U,1.16
24,U46C A57U A77U,0.18

row,Variant,self-cleavage
1,A22G A79G U96A A124G,0.22
2,U12C U87C C120U,0.5
3,C19U A57U A67G U96A A117G U143A,0
4,U13C U62C G89A U96C,0.04
5,A43G U96A A107G,0.08
6,U14C A22G G144A,1.36
7,G8U U46C A92U A124G,1.69
8,U45C U96C U143C,0.24
9,U81A U87C A129U,0.25
10,U29C G53A A77U,0.43
11,U81C U100C A117C,0
12,U1C G11A G27A A59G G72A G106U,0.03
13,A30G A64U U112C A117G A142G,0
14,A67U A94G A141G,0.42
15,U9C U12C U96C,0.21
16,A59G A64G U81C,0
17,U20C U46A A69G U85C,0.32
18,U14C C28U A65G U96A,0.31
19,U12C U108A C111U A121U,2.14
20,U12C G72A U87C U119A C145U,0.07
21,U1C U14C A78G A140G A142G,0.34
22,U26C A57G U96C A117U,0
23,U100C A121G A129G,1.02
24,U15G G32A G58A A138C,0.09

row,Variant,self-cleavage
1,U20C A24G A79C U115A,2.12
2,U52A A67G U73A U112A U132C,0.58
3,A50G A94G U109A A138G,0.44
4,U12G C68U U112A,0.32
5,U39A U87A U132C A142G,0.02
6,U39A A67G U143C,0.58
7,U26C G33U G40A,1.37
8,A6G A22U A43U U96C U130A,0.44
9,U29C U45C A79G,1.15
10,U13C A79C U96A U112A A129G,0.06
11,U109A U119C U130C,2.39
12,G34A A69U A142G,0.03
13,U14A U15C A67G G89A U112A A117U,0.11
14,U12A U46A U91A U102C A129G,0.77
15,C17U A121G U134C,0.69
16,A64U U109C U115A U134C A140G,0.19
17,U23C A107G A121U U130C,1.38
18,U46C U85C G86A U115A,0.09
19,U14C A64G A78G,0.43
20,U9A A79G U109C,0.9
21,U46C U85A U102C,0.07
22,U14C U45C A64G G106U,0.19
23,U14C C56U U81C A136G,0.35
24,G36A U39C A64G U96A,0.06

row,Variant,self-cleavage
1,U45C U47A U109C A129G,1.47
2,A2G A129G U132C,1.47
3,G33U A42G A79G U91C A142G,0
4,U20A U26A G33A U39C U46C A65G U100C,0
5,A79G C133A A136G,1.25
6,A69U A121G A129G,0
7,A31U A43G C90U,0.03
8,A69U A124C U134A,0.07
9,U20C U29C U109C,1.78
10,U23C A107G C128U,1.73
11,U13C U52A A78C A129U A138G,1.35
12,U73A A92G U100A A138G,0.1
13,C19U A30U U91A,0.54
14,U45A U46C U104A A117U,1.48
15,A57G U115C A140G,0.77
16,A30G A79U U81C,1.84
17,U29C U45C U81A,1.37
18,U13A U100C U108C,1.35
19,U1A U112C A136G,1.7
20,U15A A57G G82A U132C,0.84
21,U14G U100A A142G,0.57
22,U15C A31G U102C,0
23,U14C A42G A57U A69U A124U,0.1
24,U1A U39A A65G A121U,0.26

row,Variant,self-cleavage
1,A31G U62C A78G U91C,0
2,U13C C90U U112C U143C,0.05
3,A30U G88A U119C C128U A138G,0.13
4,U9C A59U A69G A142G,0.5
5,U5C A42G U52C U85C,0
6,G33A G49U A79G U143C,0.91
7,U9A C66U G86A,0.05
8,G58A A77U U134C,0.06
9,U47C G58A A92U,0.01
10,U45C U85C A94U U134A,0
11,U15A U108C C133U,1.01
12,A31G A57U A67G,0.25
13,U26C A78G U87A U108C,0.17
14,U15C A64U C116U U132C,0.62
15,U14C U47G C51U A136U,1.16
16,A30G A77G A107G,1.31
17,G10A C51A U96C,0.13
18,U39A A79U A121U,1.51
19,U29C U119C A141G,0
20,G72A G82A U115C,1.83
21,U13A U39C A129G,1.11
22,A43U U45C U112C,0.59
23,U47A A69U A129U,0.05
24,G32A U104G A142U,0.72

row,Variant,self-cleavage
1,U1G A57G U102C,0
2,U26C C51U U62A U100C U109C A140G,0.07
3,A129G U130C U134A,2.7
4,U46C C76U U102A,0.7
5,U29C A69G G127U,0.63
6,U15C A94G U115C A138G,1.31
7,U47A A57G U62C,0.08
8,U47C C113A A124U,0.39
9,U102C U115A G125U U143C,0.74
10,U5C A42G A124G,0.6
11,G7U G48U C61U U81C A142G,0.03
12,A31U U39A U87A,0.14
13,A2G A30G C68A U112C A138G,0.38
14,U12A C38U U112C,1.27
15,A64U G72A U134C,0.42
16,G34A A42G U46A U47C A69G A124G,0
17,A31G U39A U115C,1.1
18,U26A U85A U130C,0.07
19,U12C G86A A117G A141G,0
20,U14A A78G C98G A138G,0.11
21,U26C A77U U85G,0.04
22,U91A U130C G139A,1.13
23,U52A U96C U102A U112C G114A U134A,0
24,A2G U9A G11A A50U U112C,0.69

row,Variant,self-cleavage
1,U13C U15C G34U A50G,1.19
2,C3U A6G A24G U112A,0.92
3,A69G C101A U108C G114A U134A,0.23
4,U29C A77G C131U,1.84
5,U73A U100A U115C A142G,0.85
6,U13C U62A A142G,0.17
7,U13C A30U U62C U143C,0.2
8,C71U A79U U112C A140G,0.16
9,A6G U115A U134C,0
10,U13C U87A U100C,0.55
11,U12C C51U A121U,1.16
12,U20C U130C U134C,1.15
13,A59G U104C A117G G137U,0
14,C128U A141G U143A,1.5
15,U39C A59G A64G,0.29
16,U14A U26C U134G,0.79
17,U13C A92G G106U,0.1
18,A22C A31U A141G,0.92
19,U13C U87C A140G,0.15
20,U12C A22G U39A A50G U96C,0
21,U13C A78C U87A U100C U119C,1.02
22,A43U U47C G88A U119C,0.06
23,A30C G34A U87C,0.18
